Source: ChEMBL document CHEMBL4888484, “Replenishing the malaria drug discovery pipeline: Screening and hit evaluation of the MMV Hit Generation Library 1 (HGL1) against asexual blood stage Plasmodium falciparum ,using a nano luciferase reporter read-out” (2022)
The campaign covered roughly 150,000 compounds. About 540 (0.36%) showed an effect of 50% or more. This is one part of the list.

Each compound was assayed on Plasmodium falciparum (assay: Primary screen in NF54 nanoGlo assay, in single point, at 2uM, 72h; a lower Z score goes with more inhibition). Details: timepoint 72 hour.
Type: functional, Erythrocyte
In the case of `Cc1c(C(F)(F)F)nn(C)c1NC(=O)NCc1nccn1CCCc1ccccc1`, the “% Inhibition” value was -8% and the Z score was 1.11.
In the case of `CN(Cc1nccs1)C(=O)NC[C@H]1CCN(Cc2ccccc2F)C1`, the “% Inhibition” value was 0% and the Z score was -0.05.
With `CCOc1ccc(N2C(=O)C3ON(c4ccccc4)C(c4ccc(OCc5ccccc5)c(OCC)c4)C3C2=O)cc1` (centres undefined) the “% Inhibition” value was 0% and the Z score was -0.06.
`Cn1cc(CCC(=O)N2CCc3ccccc3C2(C)C)cn1` was tested, and the “% Inhibition” value was -4% and the Z score was 0.55.
For `CC1CCCc2ncc(C(=O)N[C@@H]3C[C@H]3c3cnn(-c4ccccc4)c3)n21` (some centres undefined), the “% Inhibition” value was -18% and the Z score was 2.
For `CCN(Cc1nc2ccccc2c(=O)[nH]1)C(=O)c1ccc(=O)n(C)n1`, the “% Inhibition” value was 13% and the Z score was -1.94.
With `COc1cccc(C2C3C(=O)N(c4ccc5ccccc5c4)C(=O)C3ON2c2ccccc2)c1` (centres undefined) the “% Inhibition” value was -7% and the Z score was 0.75.
`O=C(Nc1ccc(Cl)cc1Cl)[C@@H]1CCCN1c1nccc(C(F)(F)F)n1` was tested, and the “% Inhibition” value was 10% and the Z score was -1.93.
In the case of `CC(C)[C@H](NS(=O)(=O)C1CC1)c1nccn1C`, the “% Inhibition” value was 0% and the Z score was -0.02.
For `CN1Cc2ccccc2C[C@H]1C(=O)NC1(C(=O)O)CCCC1`, the “% Inhibition” value was -12% and the Z score was 2.36.
In the case of `Cc1nnc(-c2cc(CC(C)C)n(-c3cccc(C(=O)NC[C@H]4COC(C)(C)O4)c3)n2)o1`, the “% Inhibition” value was 6% and the Z score was -0.76.
In the case of `COc1ccc(-n2nc(C)c(CCC(=O)Nc3ccc(F)cc3)c2Oc2cccc(F)c2)cc1`, the “% Inhibition” value was 3% and the Z score was -0.39.
In the case of `COc1nc(N[C@@H](C)C2=CCCCC2)ncc1F`, the “% Inhibition” value was -14% and the Z score was 1.55.
With `CNC(=O)NC(=O)C(C)NC(C)c1cccc(OC(C)C)c1` (centres undefined) the “% Inhibition” value was -8% and the Z score was 1.19.
`CCCN1CCN(S(=O)(=O)c2c(C)[nH]c(-c3nnc(C4CCC4)o3)c2C)CC1` was tested, and the “% Inhibition” value was 8% and the Z score was -1.16.
`O=C(c1cc(-c2ccc3c(c2)OCO3)nc2c1cnn2Cc1ccc(Cl)cc1)N1CCOCC1` was tested, and the “% Inhibition” value was -27% and the Z score was 3.2.
`COC[C@@]12CN(C(C)=O)CC[C@@H]1CN(C(=O)CCc1ccccc1)C2` was tested, and the “% Inhibition” value was -14% and the Z score was 1.7.
With `COCc1noc(-c2ncccc2OC(C)C)n1` the “% Inhibition” value was -6% and the Z score was 0.85.
In the case of `CN(CCO)C(=O)C1(N2CCCCC2)Cc2ccccc2C1`, the “% Inhibition” value was -15% and the Z score was 2.16.
For `CC(=O)Nc1c(C)nn(-c2ccccc2)c1N1CCC(C(=O)Nc2ccccc2C(F)(F)F)CC1`, the “% Inhibition” value was -6% and the Z score was 1.05.
In the case of `O=C1CCC(=O)N1C1CC2CCC(C1)N2C(=O)Cc1ccc2c(c1)OCO2` (centres undefined), the “% Inhibition” value was -13% and the Z score was 1.54.
With `c1cc2c(cc1Cn1cc(-c3cnn(Cc4ccc5c(c4)OCO5)c3)cn1)OCO2` the “% Inhibition” value was -2% and the Z score was 0.39.
In the case of `CCc1nc2c(s1)[C@@H](NCC(C)(C)C(N)=O)CCC2`, the “% Inhibition” value was -7% and the Z score was 0.66.
For `CCCc1noc(Cn2cnc3c4ccccc4n(CC(=O)Nc4ccc(C(C)C)cc4)c3c2=O)n1`, the “% Inhibition” value was -2% and the Z score was 0.23.
In the case of `COCCN1CCC[C@H](c2nc(Cc3ccccc3OC)n[nH]2)C1`, the “% Inhibition” value was -7% and the Z score was 1.25.
With `C[C@@H](c1nc(-c2ccncc2)nn1C1CCCCC1)N1CCN(C)CC1` the “% Inhibition” value was -5% and the Z score was 0.99.
`O=C(c1ccccc1Cl)N1C[C@H]2CC[C@@H](C1)N(Cc1ccccc1)C2=O` was tested, and the “% Inhibition” value was -3% and the Z score was 0.44.
In the case of `Cn1cnnc1CCC(=O)NCCC1=CC[C@H]2C[C@@H]1C2(C)C`, the “% Inhibition” value was -11% and the Z score was 1.13.
With `O=C1CN(c2nc(-c3cccnc3)nc3c2CNC3)CCN1` the “% Inhibition” value was -15% and the Z score was 1.5.
`O=C(c1cccc(OC(F)F)c1)N1CCn2c(n[nH]c2=O)C1` was tested, and the “% Inhibition” value was -15% and the Z score was 1.39.
For `COc1ccc(C(=O)N2CC(=O)N(c3cccc(Cl)c3)C[C@@H]2C)o1`, the “% Inhibition” value was -17% and the Z score was 2.34.
In the case of `N#Cc1c(N2C(=O)C3ON(c4ccccc4)C(c4ccccc4)C3C2=O)sc2c1CCCC2` (centres undefined), the “% Inhibition” value was 0% and the Z score was -0.03.
With `CCCN1CCN(Cc2oc3ccccc3c2C)[C@H]2CS(=O)(=O)C[C@H]21` the “% Inhibition” value was 1% and the Z score was -0.22.
For `N#Cc1ccccc1CN1C[C@@H](CO)[C@H](NC(=O)c2cccnc2)C1`, the “% Inhibition” value was -12% and the Z score was 2.11.
For `O=C(Nc1ccc(C(F)(F)F)cc1)N1CC2COCC(C2)C1`, the “% Inhibition” value was -6% and the Z score was 0.87.
In the case of `CN(C)c1nc(CNS(=O)(=O)c2ccc(-n3cccn3)cc2)nc(N2CCCCC2)n1`, the “% Inhibition” value was 11% and the Z score was -1.42.
With `CCCC1CCC(C(=O)Nc2ccc3c(c2)C(=O)N(C)C3=O)CC1` (centres undefined) the “% Inhibition” value was 31% and the Z score was -3.56.
In the case of `Cc1ccc(CS(=O)(=O)Nc2ccccc2C(=O)N2CCCCC2)cc1`, the “% Inhibition” value was -8% and the Z score was 1.06.
With `CC(C)(C)CN(CC(C)(C)C)C(=O)NC1CCOCC1` the “% Inhibition” value was 7% and the Z score was -1.02.
For `COc1ncccc1NC(=O)N1CC(O)CC1c1ccc(F)c(F)c1` (centres undefined), the “% Inhibition” value was 4% and the Z score was -0.37.
`CN(Cc1nc2ccccc2c(=O)[nH]1)c1nc(N)nc2[nH]cnc12` was tested, and the “% Inhibition” value was 8% and the Z score was -1.12.
For `O=C(Cn1c(C2CC2)nc2ccccc21)N1CCC[C@H](n2cccn2)C1`, the “% Inhibition” value was -6% and the Z score was 0.79.
With `CCOc1nc(Nc2ccc(F)cc2)nc(N2CCN(c3ccc(OC)cc3)CC2)n1` the “% Inhibition” value was -7% and the Z score was 1.
With `O=C(NC1CC2CCC1C2)c1cncn1-c1ccc(-c2cc(C(F)(F)F)cc(C(F)(F)F)c2)cc1` (centres undefined) the “% Inhibition” value was -6% and the Z score was 1.12.
In the case of `CCOc1ccccc1C(=O)N[C@H]1CCOC[C@@H]1O`, the “% Inhibition” value was 13% and the Z score was -1.55.
With `CC(C)[C@H]1C(=O)NCCN1Cc1ccccc1OCCN1CCOCC1` the “% Inhibition” value was -15% and the Z score was 1.63.
For `CC(C)c1nnc2ccc(NC(=O)[C@@H]3CCCO3)cn12`, the “% Inhibition” value was -14% and the Z score was 1.44.
`Cc1nn(C)c2nc(N3CC[C@H](c4ccccc4F)C3)sc12` was tested, and the “% Inhibition” value was -2% and the Z score was 0.29.
For `O=C(c1coc(-c2ccccc2Cl)n1)N1CC(CC(F)F)C1`, the “% Inhibition” value was -16% and the Z score was 2.25.
`CC(C)c1cc(C(=O)N2CCC[C@H](c3nc4ccccc4s3)C2)n(C)n1` was tested, and the “% Inhibition” value was -9% and the Z score was 0.87.
For `O=C(CCCc1ccccc1)N1CCO[C@H](c2cccnc2)C1`, the “% Inhibition” value was -4% and the Z score was 0.71.
For `Cc1ccc(CC2CN(C(=O)NCc3noc(C4CC4)n3)C2)cc1`, the “% Inhibition” value was 1% and the Z score was -0.12.
In the case of `COc1ccc2c(c1)-c1onc(C(=O)NC3CCCC3)c1CC2`, the “% Inhibition” value was -8% and the Z score was 1.22.
With `CC(=O)c1ccc(S(=O)(=O)N2CCC(C)(C(=O)NCc3ccc4c(c3)OCO4)CC2)cc1` the “% Inhibition” value was 34% and the Z score was -0.76.
`O=C(Cc1noc2ccccc12)N1CC(Oc2nc3c(Cl)cccc3s2)C1` was tested, and the “% Inhibition” value was -9% and the Z score was 1.01.
For `OC[C@]12COc3ccccc3[C@H]1CN(Cc1ccc(F)cc1Cl)C2`, the “% Inhibition” value was 3% and the Z score was -0.46.
`O=C(Nc1ccc(Cl)c(Cl)c1)c1c(-c2ccc(Cl)cc2)cn2ccccc12` was tested, and the “% Inhibition” value was 5% and the Z score was -0.58.
`COc1ccc(NC(=O)Cc2c(C)nc3nc(-c4cccc(C)c4)nn3c2C)c(OC)c1` was tested, and the “% Inhibition” value was -2% and the Z score was 0.18.
`O=C(NCc1ccccc1CN1CCCCC1)c1nn(-c2ccccc2)c(=O)c2ccccc12` was tested, and the “% Inhibition” value was -4% and the Z score was 0.67.
In the case of `CN1Cc2cc(-c3cccc(C(=O)O)c3)ccc2NC1=O`, the “% Inhibition” value was -6% and the Z score was 0.77.
In the case of `N#Cc1cc(N2CC(CO)C2)nc2ccc(Cl)cc12`, the “% Inhibition” value was -2% and the Z score was 0.18.
With `COc1ccnc(Oc2cnc3ccccc3c2)n1` the “% Inhibition” value was -9% and the Z score was 0.96.
In the case of `O=C1CCC2(CCN(Cc3ncon3)CC2)CN1CCc1cccnc1`, the “% Inhibition” value was -25% and the Z score was 2.32.
`CCOc1cccc(-c2noc(Cn3c(=O)n(-c4cc(C)ccc4C)c(=O)c4ccccc43)n2)c1` was tested, and the “% Inhibition” value was -9% and the Z score was 0.97.
In the case of `Cc1ccc(Oc2cc3c(cc2S(=O)(=O)N2CCOCC2)C(=O)Nc2ccc(C)cc2O3)cc1`, the “% Inhibition” value was -11% and the Z score was 1.52.
For `CC(C)=CCNC(=O)N1CCC(CF)CC1`, the “% Inhibition” value was -7% and the Z score was 1.35.
In the case of `CN(Cc1cccc(N(C)C)c1)C(=O)[C@H]1CCc2cn[nH]c2C1`, the “% Inhibition” value was -3% and the Z score was 0.54.
With `c1ccc(-c2nnc(-c3noc(CCc4cscn4)n3)s2)cc1` the “% Inhibition” value was -5% and the Z score was 0.69.
In the case of `O=C(Cc1cscn1)N[C@@H]1COCC[C@@H]1Oc1cccc(F)c1`, the “% Inhibition” value was 2% and the Z score was -0.21.
In the case of `CC1CCN(S(=O)(=O)N2CCC(C(=O)N3CC[C@H](CCOc4ccccc4)C3)CC2)CC1`, the “% Inhibition” value was -10% and the Z score was 1.86.
In the case of `COc1ncccc1CN(C)Cc1nc(C)c[nH]1`, the “% Inhibition” value was -7% and the Z score was 1.24.
With `Cc1ccc2c(c1C)N(C(=O)c1coc(-c3cccnc3)n1)CCC2` the “% Inhibition” value was -2% and the Z score was 0.4.
In the case of `O=C(Nc1cc(C(F)(F)F)ccc1O)[C@H]1CCOC1`, the “% Inhibition” value was 5% and the Z score was -1.05.
For `CCc1nc(OC)ccc1NC(=O)[C@@H]1Cc2ccccc2CO1`, the “% Inhibition” value was 1% and the Z score was -0.09.
For `CN(C(=O)NC[C@H]1CN(C2CC2)CCO1)c1ccc(F)cc1`, the “% Inhibition” value was 17% and the Z score was -2.54.
`CC1(C)CN(C(=O)c2cnc3[nH]c(=O)[nH]c(=O)c3c2)C1(C)C` was tested, and the “% Inhibition” value was 4% and the Z score was -0.51.
`Cc1nn2cnnc2c(O)c1Br` was tested, and the “% Inhibition” value was -31% and the Z score was 3.64.
With `COCCN(CCOc1ccccc1F)Cc1cc(Cl)c(OCC(=O)O)c(OC)c1` the “% Inhibition” value was 6% and the Z score was -1.
For `CCCn1nc(Cn2cncn2)nc1-c1cccc(Cn2cccn2)c1`, the “% Inhibition” value was 0% and the Z score was 0.04.
In the case of `COC(C)(C)CC(C)NC1CCCCC1C(N)=O` (centres undefined), the “% Inhibition” value was -13% and the Z score was 1.87.
For `C=CCO[C@@H](C)C(=O)N1CCN(CC(C)(C)O)CC1`, the “% Inhibition” value was 8% and the Z score was -1.16.
`O=C(NC[C@H]1CC[C@@H](c2ccccc2)O1)OC1CCC1` was tested, and the “% Inhibition” value was -3% and the Z score was 0.44.
